Data taken from the supplement of paper PMC11417369.
Some of the results follow.

system: PfAP2-HC AP2 domain (GST-tagged); assay: gcPBM binding intensity (ln(normalized median fluorescence intensity)); higher = stronger DNA binding
Procedure, shortened: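 An Agilent 4 × 180k array carrying primer-extended double-stranded 36-bp intergenic genomic probes and negative controls received GST-tagged P. falciparum DNA-binding domains expressed in E. coli, about 25 μg on average, for 1 h. The binding buffer contained 1× PBS, 1% milk, 0.2 mg/ml BSA, 0.5% salmon testes DNA and 0.03% Triton X-100. Binding intensity is the top Masliner-normalised natural-log median intensity across replicate spots of either probe orientation, read after Alexa488 anti-GST antibody staining and a 488 nm scan.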

Sequence | gcPBM binding intensity (ln)
TTGATGTTGGTAGGATGTACGGTACCGGTAGTATTT [XGTACX_site6642] | 9.68
AAAATAATAAAAAGGGGTACAAAGAAACAAATATAA [XGTACX_site296] | 9.82
TATGTGCATATAAACTCACACATTGTATATTACATG [CACACA_site6106] | 9.75
ATTTTAGAATTTAATACACACAAAAAAAAAAAATTA [CACACA_site3704] | 9.66
TATTACATTATATAAACATGCAAAACTATATATTAT [TGCATGCA_site601] | 9.61
AAAAATTTATTTAAAAGTACATAAAATAAAGGTGGA [XGTACX_site7591] | 9.7
ACTTTAGAAATAGAGGTGCTATTTTTATTACCACAC | 9.71
TGCACAAAGTTATGCACACACCTAAAATTAATTTTT [CACACA_site7385] | 9.87
TATACACATATATACACACACATATATAAATAAATA [CACACA_site7579] | 10.2
TTATAATATGTATACACACACATATATAGATATATA [CACACA_site7159] | 9.87
ATTCTTTATATGCATACACACCTAATATAGGGACCT [CACACA_site6830] | 9.71
GTACATAGGTATAGCACACACAAATGTAGGTATTTT [CACACA_site4049] | 10.1
AAATGTAATATAAATAGTACATATTAAATAAAATTA [XGTACX_site6917] | 9.75
ATGTGCACATATAAAAGTACACGCACATATATATAT [XGTACX_site1238] | 9.81
AAGAATATTATAAACACACACTTTATAAAGAATTAT [CACACA_site4241] | 10.1
TATATAATTGTCTTCACACACACATATATATATATA [CACACA_site2744] | 10.2
TATTTTATTTGTATATTCATTTGTATAATATAAATA [TGCATGCA_negctrl_site267] | 9.52
AAAAAAAAAAAAAAAACACACATAAAAATATAATAA [CACACA_site3855] | 9.9
ATTATATATAATATAGTGCATGTAAAAAATAAAACA | 9.95
AAAAATAAATTTATATATTACAAGAACAAATATAGT [XGTACX_negctrl_site567] | 9.73
GAATAAATAAGATACGTACACACATATACAAAATAT [CACACA_site3660] | 10.1
AAAAGGAAAGGAAAGGGTACAATCCTATTATATTAT [XGTACX_site8652] | 9.56
ATAATATAAACGTATACACACAAGAGAAGCATAAAG [CACACA_site2889] | 10.1

Sequence | gcPBM binding intensity (ln)
TTTTTTTAAAAAAAGGGTACATATATATATTTTTCT [XGTACX_site1066] | 9.5
TATATATCTATAAACACACACCAAAATTTGTGCTTT [CACACA_site7448] | 9.99
AAATAAAAAGAAAAGAAAAAGAAAATAAAAAGAGAA [XGTACX_negctrl_site14] | 10.1
ATAAAATGAACAAACACACACACATATATTTATATA [CACACA_site7181] | 10.4
ATATATATATATTATATGCACACGTTAAAATTTCAT [CACACA_site709] | 9.7
ATATACTTTAAAGGTTAAGAAAGAAAAAAAAAAAAA [CACACA_negctrl_site956] | 9.37
GTATTACATGAGGACACACACAAAAAAAATATATAT [CACACA_site769] | 10.8
TAATTATTTTAAAAAGTGCATTAAAAGATATTAAAT [GTGCAC_site9694] | 9.46
TTATTATAAAAATGTAGTACAATACTTTTTTTTTTT [XGTACX_site732] | 9.39
ATATGTATCTCATCGTGTACATGTATATAATATATA [XGTACX_site4139] | 9.68
ATATAGTAAAGTTATACACACATGAATTTTCCCATG [CACACA_site6923] | 9.94
TTAGAAAAATTATATATACACACTTATATTTATATA [CACACA_site2821] | 9.69
ATATATCAAAATAATTGTACAAATTTTATATAATTT [XGTACX_site7249] | 9.6
TTAAAAAGATGTCACTGTACATAAAACATAAAATAT [XGTACX_site2886] | 9.85
TAAACAGACATATAAACACACATACATACATACATA [CACACA_site7215] | 10.2
TTTCATGACAATGTTTGTACATAATAAAATATATTT [XGTACX_site7039] | 9.38
GAAGAGACTTAGAAAACACACATACATAAGATAATT [CACACA_site5333] | 9.87
AAAAAAAAAAAAAAAACACACATAAAACTATAATAA [CACACA_site7758] | 9.98
CTTATACATATATATAGTACATATATCATTTTTATG [XGTACX_site4462] | 10.1
AATATAAATGTGATTACACACAACACATTTAAATGT [CACACA_site1212] | 10.1
AATTTTCTTAAAATTTGTACGTATATATTTAATATA [XGTACX_site3906] | 9.36
GTCATATATAATTGTTGTACATTTTTATAATTATGT [XGTACX_site8091] | 9.83
TATATATACTATAACACACATACACCCAAAAAAAAA [CACACA_site536] | 10.2

Sequence | gcPBM binding intensity (ln)
AAAAAATTATATTATGCACACATCGTTATATATATA [CACACA_site1201] | 9.86
AAAAAAGACCATGTTAGTACATAAGATTTTTTTCAT [XGTACX_site4298] | 9.53
ATATATAATATTTATTGTACTATTTTATTTTTATAA [XGTACX_site705] | 9.62
TTTGACATACCTCTTGCATGTGAAAAACTTTTCGCT [TGCATGCA_site364] | 9.52
AACATACGAATATTCACACATAAATATATAAATCGC [CACACA_site4672] | 9.81
ATTTCTATTTGGGTTAGTACATATAAGTCTATTTTC [XGTACX_site3234] | 9.69
ACTCTTTTAACGCAAAGTACTTTTTAAAATATTTCG [XGTACX_site7534] | 9.65
TATTATATATATATCACACATATATTCATGTACATA [CACACA_site5432] | 9.79
TATATAATCGAGTGCACACACAAAAAAAAAGTGAAC [CACACA_site1483] | 10.4
TTTTTTTTTTCTTTTTGTACATATTCATAACAAGTA [XGTACX_site2784] | 9.53
AATACGTTATTATTTTGTACATATAAATAATAAGTT [XGTACX_site815] | 9.58
ATATATATATATATATGTACACATATTATAAAAAAA [XGTACX_site8644] | 9.81
TATATATATAAATACACACACACCGTCCGTGTTAAA [CACACA_site5623] | 9.96
ATATATATTATATAGTGTACCTATGTATAATAATAT [XGTACX_site1683] | 9.61
TAACTCTATTTTTTTGCATGCTGAAGCTATGAGTTT [TGCATGCA_site821] | 9.61
TGACATAATGTGTGTAGTACATATATCGTTATTTGA [XGTACX_site5152] | 9.91
TGAATAAATATAAAAGGTACACATATAAATATATAT [XGTACX_site6349] | 9.74
TATGTAGGTAAAAATTGTACTTTTTTTTTAATATTT [XGTACX_site2303] | 9.51
TATATATTTCATAATACACACGAAAAAAAAAAAAAA [CACACA_site8972] | 9.68
ATAATATTATGTGTGAATATATCTTTAAAAAGGATA [GTGCAC_negctrl_site15] | 9.83
ATAAAAATAAAATAAGGTACAGACGAAAAAATTGAA [XGTACX_site5097] | 9.87
CACAAAAATAGACACACACACATATAAATAAATATA [CACACA_site6598] | 10.4
ATATATTATAATGATACACACAAGAAATAAAATTAC [CACACA_site3095] | 10

Sequence | gcPBM binding intensity (ln)
TTCTAGAAAACTGATCGTACAAATAAATATAGACAC [XGTACX_site2808] | 9.7
TATAAAATAAAAGTAAATATATATATATATATATAT [TGCATGCA_negctrl_site208] | 9.47
AAAATAGGGATCACGTGTACATATAAAGTGACATAC [XGTACX_site8190] | 9.88
AATGCATACACATATTGTACTAAGCCATACAACACA [XGTACX_site305] | 9.65
AATATACAAAATATCACACATATAAAATAATATATA [CACACA_site6067] | 9.8
GATATATAAACATATACACACAAAAACATATTTATA [CACACA_site6734] | 9.96
TGATAATTTCATTTTGCATGTGACAATACAAGATGT [TGCATGCA_site203] | 9.5
AATGGTTCAACGTAGTGTACGTAATAAATAATAAAT [XGTACX_site8668] | 9.7
AAATAATATGTAATCAAATTCACCAAACGAAAAAAA [TGCATGCA_negctrl_site33] | 9.79
ATTATATGTAACACGTGTACCTATTTATGTATGCTT [XGTACX_site5748] | 9.79
TATAATATTTACGACAGTACATATATATATATGTAT [XGTACX_site8332] | 9.73
AAATAATTTGTTGACACACACACACCCATACATATA [CACACA_site2285] | 10.7
TACATATAAAAGTACACACACACACCCATATATATA [CACACA_site941] | 11
TAAAATAAATTGTGCACACATATTTATAAATATGAA [CACACA_site2331] | 9.91
ATGGACTTTTATAGTTGTACATACTATGAGAACTTT [XGTACX_site2800] | 9.59
TATTGCCCGAAACACACACACATATATATATATATA [CACACA_site2491] | 10.4
GTTTATCACAGCCACGCACACATAATATATGTATAT [CACACA_site3669] | 9.98
ACAAAAAAATAAGGTGCACACAAAAAAAAAAAAAAA [CACACA_site8171] | 9.8
GAGTTCAGTTTTTGTTGTACTTATTCTTAATATGTC [XGTACX_site6083] | 9.69
TTTTTTTTTTTTTGATGTACTTATTTAATAAGATAT [XGTACX_site376] | 9.4
